The text below walks through data of ChEMBL document CHEMBL4888484, “Replenishing the malaria drug discovery pipeline: Screening and hit evaluation of the MMV Hit Generation Library 1 (HGL1) against asexual blood stage Plasmodium falciparum ,using a nano luciferase reporter read-out” (2022).

Hit rate of the full screen: of about 150,000 compounds, about 540 (0.36%) showed an effect of 50% or more. The list shows a part of the results.

The subject of the assay is Plasmodium falciparum. As to the kind of experiment: Primary screen in NF54 nanoGlo assay, in single point, at 2uM, 72h; a lower Z score goes with more inhibition. In kind it is functional, Erythrocyte. The following applies: timepoint 72 hour.
The term % Inhibition denotes the change of the read-out against control, counted positive when it falls. Turning to `CCNc1ncc(C(=O)N2C[C@@H]3CC[C@H]2CN(Cc2[nH]cnc2C)C3)cn1`, the “% Inhibition” value was -4% and the Z score is reported as 0.57.

With `Cn1cccc1-c1noc(CNC(=O)c2ccc[n+]([O-])c2)n1`, the “% Inhibition” value is recorded as -8% and the Z score is 1.46.

As to `CCc1ccccc1CC(=O)NC[C@H](O)C1CC1`, the “% Inhibition” value was determined as 4% and the Z score was -0.53.

Consider `Cc1cccc(C(=O)N2CCc3onc(-c4cccc5ccccc45)c3C2)c1O`, for which the “% Inhibition” value came to 2% and the Z score is given as -0.18.

As for `Cc1ccc(CCN(CC2CCCO2)C(=O)[C@@H]2CCCN2C(N)=O)cc1` (stereo partly specified), the “% Inhibition” value was -6% and the Z score is 0.64.

In the case of `Cc1nc(CC(=O)N2CCN(c3nc[nH]n3)CC2)c(C)s1`, the “% Inhibition” value was -2% and the Z score was 0.31.

In the case of `CC1(C)Cc2ccccc2-c2nc(-c3ccccc3)n(CCO)c(=O)c21`, the “% Inhibition” value is reported as -18% and the Z score was found to be 3.46.

Take `O=C(c1ccsc1)N1CCN(CC(=O)N2CCc3sccc3[C@H]2c2ccccc2)CC1`: the “% Inhibition” value is listed as 7% and the Z score was -1.5.

As for `O=C(CCC(F)(F)F)N1CCC(N2CCCCCC2)CC1`, the “% Inhibition” value was -10% and the Z score is listed as 1.36.

In the case of `CCCOC(=O)N1CCC[C@H](c2ncc(Br)cn2)C1`, the “% Inhibition” value is given as -24% and the Z score stood at 2.56.

On to `CO[C@H]1C[C@H](C(=O)Nc2ncc(Cc3ccccc3)s2)N(C(=O)OC(C)(C)C)C1`, for which the “% Inhibition” value stood at 4% and the Z score is given as -0.51.

In the case of `CC(=O)N(CCN1CCCCC1)[C@H]1CCCN(S(=O)(=O)c2cc(F)ccc2C)C1`, the “% Inhibition” value is -5% and the Z score came out at 0.62.

As for `Cc1nc(CC(=O)N2CC(=O)Nc3cccnc32)cs1`, the “% Inhibition” value is recorded as -5% and the Z score came to 0.67.

With `O=C(O)[C@@H]1CN(C(=O)Cn2ccc(C(F)(F)F)n2)C[C@@H]1c1ccccc1`, the “% Inhibition” value came to 3% and the Z score is reported as -0.38.

As to `CC1CN2C(=O)CN(C(=O)Nc3cc(F)cc4c3OCOC4)CC2c2ccccc21` (stereo unspecified), the “% Inhibition” value is listed as -10% and the Z score is given as 1.72.

On to `Cc1sc(NC(=O)C2(F)C(F)(F)C(F)(F)C(F)(F)C(F)(F)C2(F)F)nc1-c1ccccc1`, for which the “% Inhibition” value is -7% and the Z score is 0.76.

For the compound `CC[C@H](NCCS(=O)(=O)NC)C(=O)NC1CCCCC1`, the “% Inhibition” value was -6% and the Z score is 0.79.

On to `CCn1cc(-c2cc(C(F)(F)F)n(CCC#N)n2)cn1`, for which the “% Inhibition” value was -29% and the Z score worked out at 3.41.

`COCCN(C)c1ccc(CNCC2(c3ccc(F)cc3)CC2)cn1`: the “% Inhibition” value is given as -3% and the Z score was determined as 0.38.

Turning to `CC(=O)N[C@H](c1nc(CC(N)=O)nn1-c1cccnc1)C(C)C`, the “% Inhibition” value turned out to be 9% and the Z score is -1.09.

As for `CC(C)c1cc(NC(=O)N(C)Cc2cscn2)no1`, the “% Inhibition” value is reported as -11% and the Z score stood at 1.11.

Turning to `CN(C)S(=O)(=O)N1C[C@@H]2OC(=O)N(CCc3ccc(F)cc3)[C@@H]2C1`, the “% Inhibition” value was 3% and the Z score is -0.51.

For the compound `O=C(c1ccco1)N1CCN(C(=O)[C@@H]2CCCO2)CC1`, the “% Inhibition” value is -7% and the Z score is listed as 1.29.

On to `O=C1C[C@H](CN2CCOc3ccc(CO)cc3C2)CN1c1ccccc1`, for which the “% Inhibition” value is given as -9% and the Z score stood at 1.66.

Turning to `Cc1cn2nc(C(=O)NCc3cccnc3)cc2c(=O)[nH]1`, the “% Inhibition” value is given as -17% and the Z score is reported as 2.21.

Consider `Cc1noc(C)c1CNc1ccccc1C(=O)NC1CC1`, for which the “% Inhibition” value is -4% and the Z score was determined as 0.6.

Regarding `CCN1CCC(CC(=O)N[C@H](c2cccnc2)C(F)(F)F)CC1`, the “% Inhibition” value is reported as -3% and the Z score is listed as 0.56.

Take `CNC(=O)c1nnsc1Nc1ccccc1C`: the “% Inhibition” value is listed as -46% and the Z score stood at 5.35.

On to `CCC(=O)Nc1ccccc1-c1nc2ccccc2n(CC(=O)Nc2cccc(C)c2C)c1=O`, for which the “% Inhibition” value was -3% and the Z score was 0.51.

Turning to `O=C(COc1ccc(Br)cc1F)N[C@@H](C(=O)O)c1ccc(F)c(F)c1`, the “% Inhibition” value was -17% and the Z score is listed as 2.1.

On to `O=C(NCC1CCN(c2ccccn2)CC1)c1ccccn1`, for which the “% Inhibition” value is recorded as -14% and the Z score was determined as 2.18.

Consider `Cc1cccc(C(=O)N2CCc3cc(CNC(=O)c4n[nH]c5c4CCc4ccccc4-5)ccc32)c1`, for which the “% Inhibition” value is 0% and the Z score was -0.05.

`COc1cc2c(cc1OC)CN(C1CCN(c3ccncn3)CC1)CC2`: the “% Inhibition” value is given as -1% and the Z score amounted to 0.08.

For `CC(C)CCc1nc(N2CCN(C(=O)c3ccco3)CC2)c2cnn(-c3cccc(Cl)c3)c2n1`, the “% Inhibition” value is reported as -16% and the Z score amounted to 1.61.

With `COc1ccc(CC(=O)N2CCc3[nH]c4ccc(F)cc4c3C2)cc1`, the “% Inhibition” value was determined as 6% and the Z score is recorded as -0.8.

For the compound `Cc1ccc2c(Nc3cccc(C#N)c3)c(C(=O)N3CCOCC3)cnc2n1`, the “% Inhibition” value is reported as -11% and the Z score is 1.77.

Regarding `COc1cccc(-c2ccc(N3CCCN(C(=O)CN(Cc4ccc(F)cc4)C(=O)c4ccccc4)CC3)nn2)c1`, the “% Inhibition” value is reported as -16% and the Z score came out at 1.66.

For the compound `O=C(c1nc2ncccn2n1)N1CCCCC[C@H]1C(F)(F)F`, the “% Inhibition” value was 3% and the Z score was -0.6.

For the compound `COc1ccccc1Nc1nc(N)nc(COC(=O)[C@@H]2CCCO2)n1`, the “% Inhibition” value is given as -8% and the Z score was determined as 0.92.

`CC[C@H](C)N(Cc1cccc(OS(=O)(=O)c2c(C)cccc2Cl)c1)C(=O)c1ccccc1Cl`: the “% Inhibition” value is -11% and the Z score turned out to be 1.59.

Regarding `Cn1cc(CCc2nc(CC(N)=O)nn2-c2ccccc2)cn1`, the “% Inhibition” value is -6% and the Z score worked out at 0.67.

With `CC(C)(C)S(=O)(=O)c1cnc2c(-c3ccsc3)cnn2c1N`, the “% Inhibition” value was -6% and the Z score was determined as 1.16.

On to `CN(CCN1CCOCC1)c1nccc(-c2cnn(C)c2)n1`, for which the “% Inhibition” value is listed as -9% and the Z score was 1.24.

On to `Cc1nc(C(=O)NCCc2nc3ccccc3[nH]2)c(-c2ccccc2)s1`, for which the “% Inhibition” value is listed as -8% and the Z score was found to be 1.

`CCOc1cccnc1N1CCN(S(=O)(=O)c2ccoc2)CC1`: the “% Inhibition” value came out at 12% and the Z score was -1.52.

As to `CN(Cc1cccnc1)C(=O)c1cc2c(s1)CCCCC2`, the “% Inhibition” value is listed as -13% and the Z score worked out at 1.12.

Consider `Cc1c(C(=O)Nc2nc(-c3ccc4c(c3)OCO4)cs2)oc2c1C(=O)CC(C)(C)C2`, for which the “% Inhibition” value worked out at 8% and the Z score is reported as -1.4.

Take `O=C(Nc1ncccc1F)N1CCC[C@H]1c1ccncc1`: the “% Inhibition” value was determined as 32% and the Z score is on record as -3.57.

On to `N#C[C@@H]1COCCN1S(=O)(=O)CCc1ccccc1`, for which the “% Inhibition” value is recorded as -2% and the Z score stood at 0.44.

Turning to `CC1CC(NC(=O)c2nccn2C)C(=O)N1c1ccccc1` (stereo unspecified), the “% Inhibition” value is -10% and the Z score is reported as 1.27.

Regarding `CC(C)[C@H]1C=CCN1Cc1cnc(N(C)CC(=O)O)nc1`, the “% Inhibition” value stood at 0% and the Z score was -0.01.

For `O=C(NCc1ccccc1)c1cccc(C(=O)NCc2ccccc2)n1`, the “% Inhibition” value is reported as -16% and the Z score is 2.87.

Take `COc1ccc(-c2noc(C3CCN(c4ccc(C)cn4)CC3)n2)cc1OC`: the “% Inhibition” value was -4% and the Z score stood at 0.58.
